PubChem BioAssay AID504832 (National Center for Advancing Translational Sciences (NCATS), 2011)
About 18,000 (5.8%) of roughly 310,000 compounds were called active. The shares of active, inactive and inconclusive entries below differ from those in the screen. The call rests on the fitted dose curve; in most records, active means well fitted inhibition curve with a large enough effect; inconclusive means small, poorly fitted or top-dose-only effect, or another doubt; inactive means no such curve, though single readings can be large or run the other way. No potency is given beside an inconclusive call; the fits are too rough.

Assay: Primary qHTS for delayed death inhibitors of the malarial parasite plastid, 48 hour incubation
Conditions: P. falciparum luciferase growth in erythrocytes; series mostly up to 28.7 µM; activity change, negative = inhibition: at the top concentration
Summary of the method: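 A one-generation exposure of luciferase-tagged malaria parasites in RPMI 1640/Albumax erythrocyte culture, 37 C and 5% CO2. Inhibition is inferred from decreased luminescence after adding detection reagent.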
On the % scale 0 is the no-effect control and ±100 the full control effect; potency means the concentration at half of the fitted maximal effect; tags describe the fitted curve by direction and shape.

Row | Structure (SMILES) | Potency | activity change, negative = inhibition
1 | O=C(COC(=O)C1(c2ccc(F)cc2)CCCC1)N1CCc2ccccc21 | inconclusive [inhibitor, single point] | –
2 | O=C(CNC(=O)Cc1cccc2ccccc12)NCc1ccc(F)cc1 | – | inactive: -16.6%
3 | O=C(COc1ccc2c(-c3ccccc3)cc(=O)oc2c1)NCCCn1ccnc1 | inconclusive [inhibitor, single point] | –
4 | Cc1cc(C)c(OCC(=O)Nc2ccc(NC(=O)c3ccco3)cc2)c([N+](=O)[O-])c1 | inconclusive [inhibitor, single point] | –
5 | N#CCC(=O)Nc1ccc(C(=O)OCC(=O)Nc2ccccc2Sc2ccccc2)cc1 | inconclusive [inhibitor, partial curve, poor fit] | –
6 | CC(C(=O)Nc1ccc2c(c1)OCO2)N1CCC(N2CCCCC2)CC1 (centres undefined) | – | inactive: -13.1%
7 | O=C(NCc1cccnc1)c1ccc(S(=O)(=O)N2CCCCCC2)cc1 | – | inactive: 0%
8 | Cc1nnsc1C(=O)N1CCN(c2cc(C(F)(F)F)ccn2)CC1 | inconclusive [inhibitor, single point] | –
9 | NS(=O)(=O)c1ccc(NC(=S)N2CCN(Cc3ccc(Cl)c(Cl)c3)CC2)cc1 | inconclusive [inhibitor, partial curve] | –
10 | Cc1cccc(NC(=O)COc2cccc3c2CCN(C)C3=O)c1 | inconclusive [inhibitor, single point] | –
11 | CC1CC2(CCCC2)N(C(=O)N(C)C)c2ccc(F)cc21 (centres undefined) | – | inactive: -9.11%
12 | COc1ccc(NC(=O)CSc2nnnn2Cc2ccccc2)cc1 | inconclusive [inhibitor, single point] | –
13 | COc1ccc(CCNC(=O)CCn2c(=O)c3ccccc3n(CC(=O)NCC3CCCO3)c2=O)cc1OC (centres undefined) | inconclusive [inhibitor, partial curve, poor fit] | –
14 | FC(F)(F)c1cnc(C(c2ccccc2)c2ncn[nH]2)c(Cl)c1 (centres undefined) | – | inactive: -4.46%
15 | Fc1ccc(-c2cnn3c(-c4cccs4)ccnc23)cc1 | – | inactive: 404%
16 | CCc1ccc(CNC(=O)CCc2cn(C)c3ccccc23)cc1 | – | inactive: 5.08%
17 | COc1ccc(/C=C2\CCCc3c2nc2ccccc2c3C(=O)O)cc1OC | – | inactive: 13.4%
18 | COc1ccc(/C=N/NC(=O)c2nnn(-c3nonc3N)c2-c2cccc(OC)c2)cc1 | inconclusive [inhibitor, single point] | –
19 | CCc1ccc(C2C(C#N)=C(N)SC(N)=C2C#N)cc1 | active: 5.86 µM | –
20 | CCC1=C(OC(=O)N(CC)CC)N2C(=O)OC(=NCCc3c[nH]c4ccccc34)[C@]2(Cc2ccccc2)[C@H]2C1=CC[C@H]1C(=O)N(CC(=O)OC)C(=O)[C@H]12 | active: 5.22 µM | –
21 | C[C@H]1CN=C(N(C)C)N1CCC1CCCCC1 | inconclusive [inhibitor, single point] | –
22 | COc1cccc(NC(=O)CN(C)C(=O)c2ccc(NS(=O)(=O)c3ccc(F)cc3)cc2)c1 | inconclusive [inhibitor, single point] | –
23 | Cc1nc2ccc(NC(=S)N3CCN(c4ccccn4)CC3)cc2nc1C | – | inactive: 1.13%
24 | CCOC(=O)c1cc(C#N)c(Oc2ccccc2OC)nc1-c1ccccc1 | inconclusive [inhibitor, partial curve, poor fit] | –
25 | Clc1ccc2c(NCc3ccccn3)ccnc2c1 | active: 0.657 µM | –

Row | Structure (SMILES) | Potency | activity change, negative = inhibition
26 | Cc1ccc2c(n1)CC(C)(C)C/C2=N\O | inconclusive [inhibitor, single point] | –
27 | Cc1cc(C)n2nc(-c3cnn(C)c3C(F)(F)F)c(Cl)c2n1 | – | inactive: -8.12%
28 | CCOC(=O)Cc1csc(NC(=O)COc2ccc3ccccc3c2)n1 | inconclusive [inhibitor, partial curve] | –
29 | CCCn1c(=N)n(CC(=O)c2ccc(Cl)c(Cl)c2)c2ccccc21 | active: 7.38 µM | –
30 | COc1ccc(CCCc2nnc(SCC(=O)NN)o2)c(C)c1 | inconclusive [inhibitor, partial curve] | –
31 | Cc1ccccc1C1=NC(C(F)(F)F)(C(F)(F)F)c2c(n(C)c(=O)n(C)c2=O)N1 | inconclusive [inhibitor, partial curve, poor fit] | –
32 | Cc1ccc(C)c(NC2=NS(=O)(=O)c3ccccc32)c1 | – | inactive: -7.06%
33 | CC1=C(C(=O)Nc2ccc(Cl)cc2)C2(CCCCC2)C(C(N)=O)C(=S)N1 (centres undefined) | – | inactive: -7.34%
34 | O=C(CCCN1C(=O)/C(=C\c2cccc(Br)c2)SC1=S)Nc1cccnc1 | inconclusive [inhibitor, single point] | –
35 | Cc1ccc(NC(=O)Nc2cccnc2)cc1Cl | inconclusive [inhibitor, single point] | –
36 | CC(C)c1nnc(NC(=O)c2ccc3c(c2)OCO3)s1 | – | inactive: 91%
37 | CCc1nn(C(C)C(=O)Nc2cccc(C)c2C)c(=O)c2cc3occc3n12 (centres undefined) | active: 9.28 µM | –
38 | CCN(CC(=O)NCc1cccs1)C(=O)COc1cccc(C(F)(F)F)c1 | inconclusive [inhibitor, single point] | –
39 | Cc1c(C(=O)N2CCc3ccccc3C2)oc2ccccc12 | – | inactive: 43.8%
40 | COc1ccc(CCNC(=O)CSc2ccccn2)cc1OC | – | inactive: 6.64%
41 | CCOc1ccc(/C=C/C(=O)OCC(=O)c2ccccc2OC)cc1OC | inconclusive [inhibitor, single point] | –
42 | COc1cccc(C2=NN(C(=O)c3ccc(C)o3)C(O)(C(F)(F)F)C2)c1 (centres undefined) | inconclusive [inhibitor, partial curve] | –
43 | COc1cc(NS(=O)(=O)c2ccc(NC(C)=O)cc2)nc(OC)n1 | – | inactive: -4.05%
44 | O=C(NC1CCCc2c1cnn2-c1ccccc1F)c1ccccn1 (centres undefined) | – | inactive: -6.91%
45 | CCC(C)NC(=O)/C=C/c1ccc(S(=O)(=O)NCc2ccco2)cc1 (centres undefined) | inconclusive [inhibitor, single point] | –
46 | CCOCCOc1nc(C)cc(C)c1S(=O)(=O)c1ccccc1C | inconclusive [inhibitor, full curve, poor fit] | –
47 | COc1ccc(S(=O)(=O)N2CCN(C(=O)[C@H](Cc3ccccc3)NC(=O)c3ccco3)CC2)cc1 | inconclusive [inhibitor, single point] | –
48 | Cc1ccc(S(=O)(=O)N(CCCN2CCCC2=O)Cc2cc3c(C)ccc(C)c3[nH]c2=O)cc1 | inconclusive [inhibitor, partial curve, poor fit] | –
49 | CN(C)/C=C/C(=O)c1ccc(Cl)s1 | – | inactive: 33%
50 | CCCC(=O)NC(c1ccc(N(C)C)cc1)c1c(O)ccc2ccccc12 (centres undefined) | inconclusive [inhibitor, single point] | –

Row | Structure (SMILES) | Potency | activity change, negative = inhibition
51 | Cc1ccc(-c2cc(C(=O)Nc3ccc(S(=O)(=O)Nc4cc(C)on4)cc3)c3ccccc3n2)c(C)c1 | inconclusive [inhibitor, single point] | –
52 | NC(N)=N/N=C/c1ccc(OCc2ccccc2Cl)cc1 | active: 0.147 µM | –
53 | Cc1ccc(SCCNC(=O)CN(c2ccc3c(c2)OCO3)S(C)(=O)=O)cc1 | inconclusive [inhibitor, partial curve, poor fit] | –
54 | C=CCn1c(COc2cccc(C)c2)nnc1SCC(=O)c1c[nH]c2c(CC)cccc12 | – | inactive: 7.29%
55 | CC(=O)Nc1ccc(N(C(=O)CNC(=O)c2ccco2)C(C(=O)NCc2ccco2)c2ccccc2F)cc1 (centres undefined) | – | inactive: -6.52%
56 | Cc1sc(NC(=S)NC(=O)c2ccco2)c(C#N)c1C | – | inactive: 39.2%
57 | Cc1cc(C(=O)Nc2nnc(C(F)(F)F)s2)no1 | – | inactive: -11.2%
58 | CCOc1ccc(/C=C2/Sc3ccc(C(=O)NCC4CCCO4)cc3N(C)C2=O)cc1OC (centres undefined) | active: 8.28 µM | –
59 | NC(=O)c1ccsc1NC(=O)CSc1nc2ccccc2c(=O)n1CCCO | inconclusive [inhibitor, single point] | –
60 | COC(=O)c1sc2ccccc2c1-n1cccc1C(=O)C(=O)Nc1ccccc1 | – | inactive: 38.7%
61 | O=c1nc2c(-c3ccccc3F)n[nH]n2c2ccccc12 | – | inactive: 80.3%
62 | CCOC(=O)N1CCC(N(CCOC)C(=O)Nc2ccc(Cl)c(Cl)c2)CC1 | inconclusive [inhibitor, partial curve, poor fit] | –
63 | Cc1ccc(COC(=O)NCc2cccnc2)cc1 | – | inactive: 12.5%
64 | Cc1ccccc1OCCn1c(=O)sc2ccccc21 | active: 13.1 µM | –
65 | CC(NC(=O)CN1CCN(Cc2cccc(F)c2)CC1)c1ccccc1 (centres undefined) | – | inactive: -1.27%
66 | S=C(Nc1ccc(Br)cc1)NC1CCCC1 | inconclusive [inhibitor, single point] | –
67 | CC(C)Oc1ccc(S(=O)(=O)N2CCOCC2)cc1NC(=O)C1=NN(c2ccccc2)C(=O)CC1 | active: 3.7 µM | –
68 | COc1ccc(C)cc1NC(=O)c1ccccc1NS(=O)(=O)c1ccc(Cl)s1 | inconclusive [inhibitor, partial curve] | –
69 | Cc1ccccc1C(=O)O/N=C(\N)c1ccc([N+](=O)[O-])cc1 | – | inactive: -3.02%
70 | c1ccc2c(-c3c[nH]c4ccccc34)c3ccccc3nc2c1 | inconclusive [inhibitor, full curve] | –
71 | C/C(CCN1CCCCc2nc(C)c(C)cc21)=N\O[C@@H](C)c1cn([C@H](CO)Cc2ccccc2)nn1 | inconclusive [inhibitor, single point] | –
72 | CCOc1ccc(C2NC(=O)NC(C)=C2[N+](=O)[O-])cc1OC (centres undefined) | – | inactive: -19.9%
73 | CCn1c(CSc2nc(C)cs2)nc2cc(S(=O)(=O)N(C)C)ccc21 | inconclusive [inhibitor, single point] | –
74 | COc1ccc2c(CC(=O)N3CCN(S(=O)(=O)c4ccc(F)cc4)CC3)coc2c1 | inconclusive [inhibitor, single point] | –
